Results from patent US20210363257A1 (Pieris, published 2021).

Columns and labels:
[1] = biological target: T1, human CD137 expressed on cells (human, UniProt Q07011 24-255); test: flow cytometry, Flp-In-CHO::huCD137 cells
T1 construct: whole, on cells; also called Flp-In-CHO::huCD137; NFκB-luc2/CD137 Jurkat cells
Experimental: (§1) The geometric means of the fluorescence intensity were used to calculate EC₅₀ values using nonlinear regression (shared bottom, SLOPE=1).
(§2) 5×10⁴ cells per well were incubated for 1 h in ice-cold PBS containing 5% fetal calf serum (PBS-FCS). A dilution series of the fusion proteins and control antibodies were added to the cells and incubated for 1 h on ice. Cells were washed twice with PBS and then incubated with a goat anti-hIgG Alexa647-labeled antibody for 30 min on ice. Cells were subsequently washed and analyzed using iQue Flow cytometer (Intellicyte Screener). Mean geometric fluorescent signals were plotted and fitted with Graphpad software using nonlinear regression (shared bottom, SLOPE=1).

[2] = biological target: T2, cynomolgus CD137 expressed on cells (cynomolgus, UniProt A9YYE7 24-254); test: flow cytometry, Flp-In-CHO::cynoCD137 cells
T2 construct: also called Flp-In-CHO::cynoCD137
T2 sequence (A9YYE7 entry or part of it limits assumed): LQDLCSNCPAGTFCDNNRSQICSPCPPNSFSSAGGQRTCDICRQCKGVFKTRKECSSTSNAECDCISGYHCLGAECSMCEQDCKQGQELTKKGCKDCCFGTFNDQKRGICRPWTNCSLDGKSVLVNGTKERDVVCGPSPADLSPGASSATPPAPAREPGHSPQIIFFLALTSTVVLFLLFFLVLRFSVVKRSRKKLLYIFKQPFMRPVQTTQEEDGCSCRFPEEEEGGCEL
Experimental: as §1, §2

[3] = biological target: cyCD137-Fc (cynomolgus CD137 C-terminally fused to Fc) (cynomolgus); test: ELISA, cyCD137-Fc coated, detection anti-NGAL-HRP
Experimental: (§3) Recombinant huPD-L1-His or cyPD-L1-His (human or cynomolgus PD-L1 with a C-terminal polyhistidine tag, R&D Systems or Sino Biologics) at the concentration of 1 μg/mL in PBS was coated overnight on microtiter plates at 4° C. After washing with PBS-0.05% T (PBS supplemented with 0.05% (v/v) Tween 20), the plates were blocked with 2% BSA (w/v) in PBS-0.1% T (PBS supplemented with 0.1% (v/v) Tween 20) for 1 h at room temperature. […] Bound molecules under study were detected by incubation with 1:5000 diluted anti-human IgG Fc-HRP (Jackson Laboratory) in PBS-0.1% T-2% BSA. After an additional wash step, fluorogenic HRP substrate (QuantaBlu, Thermo) was added to each well and the fluorescence intensity was detected using a fluorescence microplate reader.
(§4) The same ELISA setup was also employed to determine the binding potency of fusion proteins to CD137, where huCD137-His (human CD137 with C-terminal polyhistidine tag, R&D Systems) or cyCD137-Fc (cynomolgus CD137 C-terminally fused to Fc) was instead coated on a microtiter plate. The testing agents were similarly titrated and bound agents were detected via anti-NGAL-HRP.

[4] = biological target: T3, huCD137-His (human CD137 with a C-terminal polyhistidine tag) (human, UniProt Q07011 24-186); test: ELISA, huCD137-His coated, detection anti-NGAL-HRP
T3 construct: Bought; also called huCD137-His-Bio
Experimental: as §3, §4

[5] = biological target: T3, huCD137-His (human CD137 with a …); test: SPR (Biacore), binder captured by anti-human IgG Fc, huCD137-His in solution, 25 C, 1:1 model
Experimental: The binding kinetics and affinity of exemplary fusion proteins to huPD-L1-His or huCD137-His (human PD-L1 or human CD137 with a C-terminal polyhistidine tag, R&D Systems) were determined by surface plasmon resonance (SPR) using a Biacore 8K or a Biacore T200 (GE Healthcare).
The anti-human IgG Fc antibody (GE Healthcare) was immobilized on a CM5 sensor chip using standard amine chemistry: the carboxyl groups on the chip were activated using 1-ethyl-3-(3-dimethylaminopropyl)-carbodiimide (EDC) and N-hydroxysuccinimide (NHS). Subsequently, anti-human IgG Fc antibody solution (GE Healthcare) at a concentration of 25 μg/mL in 10 mM sodium acetate (pH 5.0) was applied at a flow rate of 5 μL/min until an immobilization level of 6000-10000 resonance units (RU) was achieved. Residual non-reacted NHS-esters were blocked by passing a solution of 1M ethanolamine across the surface. The reference channel was treated in an analogous manner. […] After each capture step, the needle was washed.
Double referencing was used and the 1:1 binding model was used to fit the raw data.

EC50 [1]	EC50 [2]	EC50 [3]	EC50 [4]	Kd [5]	koff [5]	kon [5]	Binder
5.74 nM	26.7 nM	0.82 nM	0.29 nM	3.6 nM	0.000132 s⁻¹	36600 M⁻¹ s⁻¹	CD137-specific lipocalin mutein-Fc fusion SEQ ID NO: 89 (Fc fusion) [letters of human IgG4 Fc with S228P F234A L235A (EU numbers) left out]GGGGSGGGGSGGGGSQDSTSDLIPAPPLSKVPLQQNFQDNQFHGKWYVVGQAGNIRLREDKDPIKMMATIYELKEDKSYDVTMVKFDDKKCMYDIWTFVPGSQPGEFTLGKIKSFPGHTSSLVRVVSTNYNQHAMVFFKFVFQNREEFYITLYGRTKELTSELKENFIRFSKSLGLPENHIVFPVPIDQCIDG
4.33 nM	3.81 nM	0.12 nM	0.15 nM	4.16 nM	0.000163 s⁻¹	39400 M⁻¹ s⁻¹	CD137-specific lipocalin mutein-Fc fusion SEQ ID NO: 88 (Fc fusion) [letters of human IgG4 Fc with S228P F234A L235A (EU numbers) left out]GGGGSGGGGSGGGGSQDSTSDLIPAPPLSKVPLQQNFQDNQFHGKWYVVGQAGNIRLREDKDPIKMMATIYELKEDKSYDVTMVKFDDKKCMYDIWTFVPGSQPGEFTLGKIKSFPGHTSSLVRVVSTNYNQHAMVFFKFVFQNREEFYITLYGRTKELTSELKENFIRFSKSLGLPENHIVFPVPIDQCIDGGGGGSGGGGSGGGGSQDSTSDLIPAPPLSKVPLQQNFQDNQFHGKWYVVGQAGNIRLREDKDPIKMMATIYELKEDKSYDVTMVKFDDKKCMYDIWTFVPGSQPGEFTLGKIKSFPGHTSSLVRVVSTNYNQHAMVFFKFVFQNREEFYITLYGRTKELTSELKENFIRFSKSLGLPENHIVFPVPIDQCIDG
